Sequences with one replicate were seen in a single cluster, so their values are uncertain.
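Further: ATP exposure 15 min at 22 °C before imaging.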

The series deals with ATP. The series can be described thus: switch fluorescence ratio, 500 uM ATP over buffer (Cy3 cluster intensity, sum of 5 cycles each) (fold (ratio)); higher = stronger signal-on switching upon ATP binding; sequences stand for … in TCGTCGGCAGCGTCAGATGTGTATAAGAGACAGTTTTTTTTTTTTTTTTTTTTTTTTT…TC. The note with it: aptamer strand: ATP DNA aptamer (quencher-CACCTGGGGGAGTATTGCGGAGGAAGG + anchor), 100 nM annealed; ATP concentration: 500 uM; one replicate. The gist of the method: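 The quencher-labelled ATP aptamer, at 100 nM, was annealed to Cy3-labelled switching-strand clusters on a modified Illumina MiSeq flow-cell. The clusters were imaged in selection buffer, then after 15 min with 500 uM ATP at 22 °C, and this buffer/ATP cycle ran five times with NaOH stripping and re-annealing between runs. Per-cluster fluorescence ratios, summed target-cycle over summed buffer-cycle Cy3 intensity, were averaged per switch-domain sequence. Clusters outside 100-1000 RFU were excluded.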
CGGCGACGTC: the switch fluorescence ratio came to 1.02. As for TCTATTCAA, the switch fluorescence ratio is 0.985. Take CAAGCCACTC: the switch fluorescence ratio is 1.12.

Turning to GCGGTAGCGG, the switch fluorescence ratio came out at 1.03.

Take GCACCAATA: the switch fluorescence ratio was 1.01. As to CCACGAAAGG, the switch fluorescence ratio stood at 1.24. Take CTTACTTATA: the switch fluorescence ratio is 1.01.

For GTCAAGTGAG, the switch fluorescence ratio was determined as 1.03. Consider CCTGACTCAG, for which the switch fluorescence ratio was 1.47. Regarding TTCGAAGGTG, the switch fluorescence ratio worked out at 1.14.

Consider TCCTGAGTAG, for which the switch fluorescence ratio is 1.01. Turning to GCTTCCGTCA, the switch fluorescence ratio turned out to be 1.12. AATCGTACGG: the switch fluorescence ratio is 1.01.

Take GTTTCAGTTT: the switch fluorescence ratio amounted to 1.01. As to TGTTCGGGCA, the switch fluorescence ratio was 0.98. As for ACGTCCACAT, the switch fluorescence ratio was determined as 1.4. Consider CCGAGGATTG, for which the switch fluorescence ratio turned out to be 1.02. For TGTGCCATGT the value was 1.06; for CTCTCATGT, 1.02. In the case of TTCTGGGGA, the switch fluorescence ratio is 0.963. On to CAATTGATGT, for which the switch fluorescence ratio was 0.99. With CTTCGGTGCG, the switch fluorescence ratio amounted to 1.1. As for TTTTGGAGGC, the switch fluorescence ratio stood at 1.01. In the case of GAGATGAAAG, the switch fluorescence ratio worked out at 1.06. In the case of GCTCAAGGGA, the switch fluorescence ratio was determined as 1.05.

Regarding TAATGAATTT, the switch fluorescence ratio is 1. Consider CGTATCTTTC, for which the switch fluorescence ratio is 1.03.

Regarding GCCGTCCCCC, the switch fluorescence ratio is 0.982. With ATGCAAGG, the switch fluorescence ratio turned out to be 1.04. In the case of ACTGTCGGAC, the switch fluorescence ratio was 1.02. Regarding CATTAAGAGT, the switch fluorescence ratio came to 1.03. To GTTTCAAGT belongs 1.01; to AATTGCTAGT, 1; to CCTTGGGTCG, 1.01. As to TAAGGTATCA, the switch fluorescence ratio is 0.997. For the sequence CAGGTTTATC, the switch fluorescence ratio was found to be 0.95. For AAAACCCCTA, the switch fluorescence ratio was found to be 1.06. To CAAAACTGCG belongs 1.07; to AATGTGACCA, 0.965; to GATAACCTGG, 1.05. In the case of GTGAACCTA, the switch fluorescence ratio came out at 1.08.

Take GCTCTTGTC: the switch fluorescence ratio is 0.992. On to AGTCCGGTTG, for which the switch fluorescence ratio is 1.06. With GATGCTCC, the switch fluorescence ratio was determined as 3.13. Turning to GTATGCGCAC, the switch fluorescence ratio worked out at 1.06.

As to GATTTTGA, the switch fluorescence ratio came to 0.946.

CTGTAGTAGA: the switch fluorescence ratio worked out at 1.05. As to CCCTTACTTA, the switch fluorescence ratio was determined as 1.1. With ACGATTTGTC, the switch fluorescence ratio came out at 0.958.

As for TGCAGTCAGA, the switch fluorescence ratio worked out at 1.01.

Consider AGGCGTGGTA, for which the switch fluorescence ratio came to 1.07. As to TCCGAAATAG, the switch fluorescence ratio amounted to 4.54. Consider ATGCCGGATG, for which the switch fluorescence ratio is 1.01.

Take ATGCTCTTGC: the switch fluorescence ratio is 0.998. Take GGGACTTATT: the switch fluorescence ratio came to 1.01. For the sequence CAGCTAAACG, the switch fluorescence ratio was 1.09. Take AGTTTACCCT: the switch fluorescence ratio is 1.01. TGACGTTGTT: the switch fluorescence ratio was determined as 0.942. Consider TGGGCGGGCG, for which the switch fluorescence ratio came to 1.07. On to AGCGTCATAG, for which the switch fluorescence ratio is 0.94.

Turning to GCGAAGGGCT, the switch fluorescence ratio was 1.01. To CCACTGGTAT belongs 1.04; to AACGACCTTC, 1.64; to GATATGTAGC, 1.

As to GCTATGGCGT, the switch fluorescence ratio was determined as 1.02. For ATATCTTGTG the value was 0.986. Turning to TCTCGAGACC, the switch fluorescence ratio was 1.

The values above are taken from the supplement of paper PMC10126150.
